Experimental findings from paper PMC13034042 are described below.

Protein sequences, listed by entry. Tags and fused reporters are not part of them. Lines headed by an entry give the natural chain unless they say otherwise; changes in a name come on top.
UniProt Q12522: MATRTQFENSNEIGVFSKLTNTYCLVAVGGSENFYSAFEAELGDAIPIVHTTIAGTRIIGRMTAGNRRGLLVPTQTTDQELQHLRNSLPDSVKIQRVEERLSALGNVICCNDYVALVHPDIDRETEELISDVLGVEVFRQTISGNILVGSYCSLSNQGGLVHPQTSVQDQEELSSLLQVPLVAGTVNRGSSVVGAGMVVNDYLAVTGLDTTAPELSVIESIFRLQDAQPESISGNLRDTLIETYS
UniProt P0CX44: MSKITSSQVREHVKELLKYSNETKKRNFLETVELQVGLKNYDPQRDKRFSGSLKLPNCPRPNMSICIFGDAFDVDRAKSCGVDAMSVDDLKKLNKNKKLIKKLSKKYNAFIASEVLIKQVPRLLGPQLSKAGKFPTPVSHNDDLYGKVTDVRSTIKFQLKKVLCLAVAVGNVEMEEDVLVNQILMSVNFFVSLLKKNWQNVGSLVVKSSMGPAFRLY

First the molecules themselves.
T1: Bcl1, full length, Y2H fusion (S. cerevisiae) (UniProt P53962)
T1 sequence: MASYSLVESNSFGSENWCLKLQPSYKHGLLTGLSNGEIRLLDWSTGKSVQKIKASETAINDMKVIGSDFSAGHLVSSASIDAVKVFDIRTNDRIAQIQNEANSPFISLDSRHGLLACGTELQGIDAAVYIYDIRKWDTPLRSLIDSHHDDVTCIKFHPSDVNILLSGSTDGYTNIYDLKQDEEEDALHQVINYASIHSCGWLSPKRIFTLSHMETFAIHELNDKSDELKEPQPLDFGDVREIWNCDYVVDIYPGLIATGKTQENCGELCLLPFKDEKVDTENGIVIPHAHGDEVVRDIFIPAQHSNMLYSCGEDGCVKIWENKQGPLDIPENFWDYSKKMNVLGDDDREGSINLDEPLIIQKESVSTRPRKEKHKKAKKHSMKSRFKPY

B1: Acl1 Y47A variant, Y2H fusion (protein, UniProt P25631 1-222)
chain: MNANIWVAASDGNLDRVEHILRESKGAMTPQSKDINGYTPMHAAAAAGHLDLLKKMCNEYNGDINVLDNDGDTPLHHVEDVATARLIVEELGGDFTIRNVEGQTPYDSFVENGEDGELIEYMRIKSGVADVHGVDGVQGEGVIDSKLLEEFKDNVRYTLENDPEEGADEATLQRRRQLEQIITGDNAEEELERYIRAMVREQMLGQGSMAGSGDEPDSKRRK
B2: Acl1 D68A variant, Y2H fusion (protein, UniProt P25631 1-222)
chain: B1 chain with A47Y, D68A
B3: Acl1 D72A variant, Y2H fusion (protein, UniProt P25631 1-222)
chain: B1 chain with A47Y, D72A
B4: Acl1 D34A variant, Y2H fusion (protein, UniProt P25631 1-222)
chain: B1 chain with D34A, A47Y
B5: Acl1 D70A variant, Y2H fusion (protein, UniProt P25631 1-222)
chain: B1 chain with A47Y, D70A
B6: Reh1.N62, Y2H fusion (domain or fragment, UniProt Q06709 1-62)
chain: MSSTFFTCNCCVIQFKTSDLQRYHMKTEWHRYNLKRRIANLPPIGAEQFAEKLQISEKEQAE
B7: Rei1.N66, Y2H fusion (domain or fragment, UniProt P38344 1-66)
chain: MSSSGVYTCNSCVLTFDSSDEQRAHMKSDWHRYNLKRRVAQLPPISFETFDSKVSAAAASTSKSAE
B8: Bcl1.323C, Y2H fusion (domain or fragment, UniProt P53962 323-389)
chain: KQGPLDIPENFWDYSKKMNVLGDDDREGSINLDEPLIIQKESVSTRPRKEKHKKAKKHSMKSRFKPY
B9: Bcl1.N325, Y2H fusion (domain or fragment, UniProt P53962 1-325)
chain: MASYSLVESNSFGSENWCLKLQPSYKHGLLTGLSNGEIRLLDWSTGKSVQKIKASETAINDMKVIGSDFSAGHLVSSASIDAVKVFDIRTNDRIAQIQNEANSPFISLDSRHGLLACGTELQGIDAAVYIYDIRKWDTPLRSLIDSHHDDVTCIKFHPSDVNILLSGSTDGYTNIYDLKQDEEEDALHQVINYASIHSCGWLSPKRIFTLSHMETFAIHELNDKSDELKEPQPLDFGDVREIWNCDYVVDIYPGLIATGKTQENCGELCLLPFKDEKVDTENGIVIPHAHGDEVVRDIFIPAQHSNMLYSCGEDGCVKIWENKQG

Residue numbers refer to the chain shown, from its start. Numbers in names are those of the source. These are yes or no findings as the source states them, for the method shown. Some results given as binding are weak or reduced against the parent protein; the word gives no strength. Tags and fused reporters may be left off the sequences shown.

One assay has as its target T1, Bcl1, full length, Y2H fusion (S. cerevisiae). As to the kind of experiment: two-hybrid; Y2H in reporter strain PJ69-4A; G4BD bait and G4AD prey from monocopy plasmids (ADH1 promoter); growth on SC-HLT (HIS3) and SC-ALT (ADE2) plates, 3 days at 30°C.
In the case of B1, the binding result is “no binding”.
As to B2, the binding result is “no binding”.
The same measure, in the same setting: then B3, with “no binding”.
As to B4, the binding result is recorded as “no binding”.
In the case of B5, the binding result is given as “no binding”.

For a further assay, the target named is Tif6, full length, Y2H fusion (S. cerevisiae) (UniProt Q12522). Described as above.
For B6, the binding entry is recorded as “binds”.
On to B7, for which the binding result is “binds”.

For the next assay, the target named is Rpl1b, full length, Y2H fusion (S. cerevisiae) (UniProt P0CX44). Described as above.
Consider B8, for which the binding result is “no binding”.
In the case of B9, the binding result is “binds”.
